# Test results as given in the RNAGym collection of RNA variant scans (doi:10.7554/elife.90254).
# Read counts are not given, so values of variants with three or more changes are uncertain.
# B1: LINE1-full (parent)
# chain: UACGUAGGUGGUUUUCCCCUGAUAGUGCUAAGGGGGCCUGGAAGUUUGGACUGGGCAGAGCUCAACACAGCGUGGCAAAGUGGCUGUGGCUAGACUGCCUCUCUGGAUUCCUCGUCACUCAGCAGGGCAUCUCUGAGAGAAAUGCC
# Variants of: B1
# Assay: self-cleavage, relative activity (ratio to wild type); higher = more cleavage; in vitro, sequencing; the parent is a self-cleaving ribozyme
row,Variant,self-cleavage
1,U14C A77G C98U A138G,1.1
2,A31G A43G U62A A117G,0
3,U26C U52C A69U U109C,0.39
4,G93U A121U A138U,0.09
5,U13C U39A U109C U134C,1.26
6,G44A A50U A77G U87C,0.14
7,U13C A92U A138G,2.3
8,G40A A43G C63U A117G,0.31
9,A65G U81C C118U,0
10,U5G C38U A57U A78G A79G,0.22
11,G40U A42G U102C,1.35
12,U20C U39A G53A U102C,0.94
13,U14A A67G A141G,0.57
14,A64G U96A A129G,0
15,A6G U52A C84U C116U A129U,0.27
16,G53U A77C A78U U102C A141G,0.84
17,U14C A64G G88A A117U,0.09
18,A57U U73A U81A,0.01
19,U20A U81A G89A U102A,0.08
20,U9A A77U U87A A138G,0.1
21,C17U A43G G48C C63U A64G U112C A142C,0.33

row,Variant,self-cleavage
1,U12G G53A A124G U134A,0.75
2,A22U A92U U96C U143A,0.13
3,C38U U96C U104C,0.5
4,U39G A64G U143C,0.49
5,U15C U26G A141G,1.23
6,U12G U115C A142U,1.36
7,U12C A22G G44C,1.09
8,U14C A42G U47C U52A U87G,0.84
9,U5A U45A U81G,0.64
10,U91C U96C A136G U143A,0
11,G34U U47C A121G A142G,1.67
12,U13C G80C U119A A124U,1.04
13,U73A A77U U87C A94U U102C U104A A141U,0.06
14,G10A A43G U62C,0
15,G4A G10A U12C A57G,0.14
16,U47A A69G U132A U143C,0
17,U20C A42G U62C,0
18,U13A U45C A67G A79C G88A,0.09
19,A2G U39C C133A,0.63
20,U12C A67U U85C A142G,0.19
21,U87C C113A U132C,0.06

row,Variant,self-cleavage
1,U13C A42G A65U G74A C98U,0.07
2,U46C U47A A92U A138G,1.13
3,U45A C66A U73C A77G U130C,0.02
4,A6U A69U A77G,0.18
5,C19A A50U A64U U115C A117G,0.87
6,U5G A67C U81A,0.11
7,U20C G21A U104A A136U,0.57
8,U9A A67G C113U,0.4
9,A31G U96G U115A A138G,0.16
10,A6G A79G A140G,0.68
11,U12A U62C G75A U115A,0.1
12,U29A A59U C128U,0.64
13,A42G C98U A129G,0
14,U130A A138G C146U,1.28
15,U29C A69G A142G,0
16,U14C U26C A43G,0.97
17,A65G A136G A142G,0
18,G35A U46C A64U U81C U104C G144A,0.28
19,A6G U47A A64C,0.09
20,U20C G53A A57G A77G,1.59
21,G70A A77G C84A U100C,0.34

row,Variant,self-cleavage
1,A50G U73A U96C,0.5
2,U13C A42G U96A,0.17
3,A2U A50G G137A A141G,0.34
4,U47C U112A G125A,1.25
5,A50U C113U U143C,0.9
6,U47C G48U A124G,0.52
7,U15C G41U A43G,1.28
8,U1C U15C U45C U119C,1.25
9,C19A G49A U73C A94U U132C,0
10,U14C C84U U112C,0.1
11,A42G A79G U87C,0.66
12,U46A A77G U108A,0.63
13,A30G U96A U104C U112C A141G,0
14,U14C U47C A140G,1.28
15,A65C U96A A124G,0
16,U104A A136G U143C,1.36
17,C3A U13C U15C A43G,1.1
18,G82A C116A A136G,1.58
19,G4A U13C U14A,0.49
20,U12C A43G U91C A129U A142G,1.53
21,U39A U73A U119C,1.84
